B1: CPEB3 Ribozyme (parent)
chain: UAACAGGGGGCCACAGCAGAAGCGUUCACGUCGCAGCCCCUGUCAGAUUCUGGUGAAUCUGCGAAUUCUGCUGUAUAUCUC

Read counts are not given, so values of variants with three or more changes are uncertain.

The variants in the series derive from B1. The series is described as follows: self-cleavage, relative activity (ratio to wild type); higher = more cleavage; in vitro, sequencing. An outline of the steps: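 After error-prone PCR and barcoding, CPEB3 ribozyme mutant libraries were transcribed with T7 RNA polymerase at 37°C for 5 hours, then given 15 min with DNase I before an EDTA stop, and they cleaved during both steps. Reverse transcription with template switching preceded Illumina sequencing. Relative activity divides a variant's cleaved/total read fraction by the unmutated ribozyme's. At least 5 reads were required per variant, and three batches were averaged.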
With C23U U48C A64U, the self-cleavage was 0.19.
Consider G24C U25C G30U, for which the self-cleavage was determined as 0.09.
In the case of C23U U60A U76C, the self-cleavage is 0.06.
For the variant C23U U26C G36A U66C U72C C81U, the self-cleavage came out at 0.05.
The value for U25A A35G U69A U80C was 0.19.
The value for C23U U43A A56G was 0.41; that for C23U U41C U43C U60C C62A was 0.06; that for G24U U25C U43A U66C was 0.14.
Turning to G24A G30A U41A A47G U49C, the self-cleavage stood at 0.1.
As to U25A A56G U74C, the self-cleavage is 0.4.
The value for C23U A35U U48C U54C was 0.13; that for C23U U25C A47G U51C was 0.1.
G24C U25C A75U: the self-cleavage came out at 0.11.
For the variant U25A A35G U41C A56G U60A G61A A64G, the self-cleavage stood at 0.12.
For C23G U41C U78A, the self-cleavage is 0.1.
With C23U A65G U69C, the self-cleavage is 0.09.
With G24A A45G U48C U60C G63U A64G, the self-cleavage was 0.1.
Consider C23U G52C U54G U78A, for which the self-cleavage came out at 0.34.
For G24C C37U A45U U48C U54C U58C A64G the value was 0.16.
Consider U25A A28G U54C A57U U72A, for which the self-cleavage is 0.
On to G24A U54C U60G G63U U78C, for which the self-cleavage came out at 0.13.
Take U25A A35U G53A U60C: the self-cleavage turned out to be 0.19.
As to C23U U67C U72C, the self-cleavage stood at 0.09.
With G24U U25A A45U, the self-cleavage amounted to 0.07.
In the case of G24A U31C U51A, the self-cleavage came out at 0.16.
For U25A A45U A65G U69A the value was 0.32; for G24A U51G U69A, 0.16; for U25A C29U U60A, 0.07.
Take G24A U54A A57G U67C U80C: the self-cleavage stood at 0.09.
As for U25A A77U U80C, the self-cleavage came out at 0.33.
The value for C23U A47G U48C was 0.08.
Regarding G24A A45G U80C, the self-cleavage came to 0.35.
For U25A A45U U54C U76A A77U the value was 0.09; for C23U C38U A56G, 0.07; for C23U A35U C39A U69C, 0.04.
The value for G24A A35U A64G was 0.18.
For G24A U54C A77G, the self-cleavage came to 0.05.
C23U C32U A45G A57G U60C: the self-cleavage worked out at 0.07.
For G24A U54C A56U U80A, the self-cleavage came out at 0.15.
In the case of G24A A28G U41A U74A, the self-cleavage is 0.17.
On to C23U A45G C81G, for which the self-cleavage is 0.32.
G24U U48C A77C: the self-cleavage was 0.47.
For G24A U72A U80C the value was 0.14; for C23U U26A U43C C71A, 0.05; for U25A A28G U48C, 0.16.
For the variant U25A C32U U78C, the self-cleavage amounted to 0.36.
Regarding C23U U26C A35G C50U U66C, the self-cleavage stood at 0.09.
For the variant U25A A35G U41C, the self-cleavage was found to be 0.15.
On to U25A A35G U41A, for which the self-cleavage is 0.23.
With C23U G24A A47G, the self-cleavage worked out at 0.19.
Turning to C23U C32U U51A, the self-cleavage worked out at 0.13.
In the case of C23U C38A U49C A57U U66C, the self-cleavage was 0.11.
For the variant U25A A57G U72C, the self-cleavage turned out to be 0.05.
For C23U C40A A56U A64U G73U, the self-cleavage was 0.07.
The value for G24A A45U U60C A65U was 0.11; that for C23U A35U A47U was 0.03; that for G24A U25C A35G C50A U54A A56U U67C was 0.09.
For G24C A35G U69C the value was 0.23; for U25A A45U U78C, 0.23; for C23U U25C A45C A57G U69C, 0.1.
In the case of C23U U41C U43A A65G, the self-cleavage came to 0.16.
As for U25A A56G U76A, the self-cleavage is 0.1.
For the variant U25A A28G A47G U49C U51C, the self-cleavage is 0.06.
Consider G24C U26C A64G U72A C79U U80C, for which the self-cleavage worked out at 0.22.
For the variant C23U G52C A64U, the self-cleavage stood at 0.13.
On to U25A A35G U51C U76A, for which the self-cleavage turned out to be 0.14.
For G24A U41C U69C U72C, the self-cleavage came to 0.14.
For the variant G24A U26C U54A A64G, the self-cleavage is 0.22.
For G24A U41G U49C the value was 0.16; for G24A U31A C32U U60G A64G, 0.09.
G24U U31C C38U A45G U49C A64U: the self-cleavage is 0.08.
For G24A U26G C27U A56G U66C the value was 0.05; for G24A C29U U43C A56G A64G A77G, 0.1.
As to G24C U41C C50A U66A, the self-cleavage is 0.1.
U25A A65U U72C: the self-cleavage is 0.12.
Consider G24A A35G U41C U60C U74C C81G, for which the self-cleavage is 0.
Regarding U25A C32U U54A U60C, the self-cleavage came to 0.42.
As to U25A A28G A57U U60C, the self-cleavage was 0.07.
For G24A C40A U76G the value was 0.21.
For G24A U41A U78C the value was 0.09; for U25A A35G C39U U43A U48C U49C U72C, 0.13; for U25A A28U A35G, 0.09.
With C23U U31G U51C U66C U80A, the self-cleavage amounted to 0.06.
Take U25A A45U U54C U66C: the self-cleavage came out at 0.09.
Turning to G24A C40U U41C U67C, the self-cleavage worked out at 0.11.
With U25A C32U U60A, the self-cleavage was found to be 0.22.
Regarding C23U A35U U51C U74C A75G, the self-cleavage was 0.17.
In the case of C23U U26A C32A A47G U51A, the self-cleavage stood at 0.17.
C23G U51C C79U: the self-cleavage worked out at 0.05.
Turning to U25A A47G U48C U58A, the self-cleavage came to 0.08.
As for U25A A45C U54A, the self-cleavage was found to be 0.44.
For G24A A35U U60A the value was 0.17; for C23U A35U A56G C59U U72C, 0.09.
For the variant C23U U43C A47G U49C A64G U72G, the self-cleavage was determined as 0.07.
As to G24C C29U U43C A65G, the self-cleavage stood at 0.
For the variant C23U C50G A64C U72C, the self-cleavage came to 0.06.
In the case of C23G U48C U67G, the self-cleavage was found to be 0.17.
For C23G U48C U67C, the self-cleavage was 0.09.
C23U U60C C68A U74A: the self-cleavage is 0.04.
As for G24U U48C U49A, the self-cleavage came out at 0.08.
On to C23U U49C U67C, for which the self-cleavage is 0.08.
Take U25A A28G C38U A56G C62U: the self-cleavage came to 0.07.
For C23G U72C U74C the value was 0.23; for U25A A57G C62U U67A, 0.13.
For C23U A28G U80C, the self-cleavage came to 0.25.
On to C23U U26C G30A U31C U69C, for which the self-cleavage is 0.07.
The value for C23U U26C U51C U66C U69A U80G was 0.13; that for G24A A28G U74C was 0.16; that for G24U A35G U72C U74C U80C was 0.78.
Take C23U U48C G63U: the self-cleavage was found to be 0.22.
For G24A U26C U41C A45C U49C A65G U72A, the self-cleavage stood at 0.04.
In the case of G24A C59A A64G U69A U72C, the self-cleavage is 0.09.
Regarding G24A U25C U66C U80C, the self-cleavage was found to be 0.29.
For C23U A35U C39G G42A U80C the value was 0.09; for U25A A35G A45U A56U U74A U80C, 0.08.
With G24A U31G C40G A56G A57G A64U, the self-cleavage worked out at 0.07.
Turning to U25A A28G U43C U72C, the self-cleavage was determined as 0.61.
The value for G24A A57G U76A was 0.12; that for C23U U25C A57U was 0.14.
U25A A35U A56G A57G: the self-cleavage turned out to be 0.16.
Regarding C23U A56G A75U, the self-cleavage was 0.35.
G24C A45G U58G: the self-cleavage is 0.06.
For the variant U25A A28G U43G A45G U48A, the self-cleavage was found to be 0.07.
Take G24A U48C U54C: the self-cleavage was found to be 0.14.
On to G24A A28U C40U, for which the self-cleavage came out at 0.13.
Consider G24A U26A U49C, for which the self-cleavage was 0.21.
G24C U58C U66C U67C: the self-cleavage came out at 0.16.
U25A A35G U69C A75G U76C: the self-cleavage stood at 0.12.
For C23U U54C C62U the value was 0.11; for C23U U26C A35G G52A U54C C59U, 0.09; for C23U A64U U80C, 0.1.
Turning to U25A A64U U66C U72C, the self-cleavage turned out to be 0.19.
C23U A45G A57G: the self-cleavage amounted to 0.24.
With G24A U31C G36U U60A, the self-cleavage came out at 0.1.
The value for C23U U25C A57U U60C C79A was 0.05; that for C23U U43C A45G G52A U54C A75U U80C was 0.09; that for U25A A28G U31A U41G was 0.24.
Consider C23U A28C U41C, for which the self-cleavage worked out at 0.23.
For C23U U58C U72C, the self-cleavage amounted to 0.23.
The value for G24U U41A U49C was 0.19; that for G24A C32A A35C U51C was 0.18.
As for U25A A57G U69A U72A, the self-cleavage is 0.14.
In the case of C23U U69C A77G, the self-cleavage stood at 0.34.
As for G24A U25C U48C A57G, the self-cleavage amounted to 0.07.
As to C23U C29U U41A U43C U69C A75G, the self-cleavage was 0.03.
For the variant C23U A45U U51C A64G U69C U72G, the self-cleavage was determined as 0.
Take G24A G30A U80C: the self-cleavage is 0.22.
Consider C23U C39A U67A, for which the self-cleavage is 0.31.
Consider U25A A47G G52A U54C, for which the self-cleavage was 0.26.
Take G24C A35U A56G A64G U78A: the self-cleavage came out at 0.05.
In the case of U25A A64U U78C, the self-cleavage was determined as 0.12.
Regarding G24U U43A U69A, the self-cleavage amounted to 0.28.
For G24A A47G U49C A56G U72A the value was 0.13; for G24A U31C U41A C44G, 0.05; for G24C U67C C81U, 0.15.
C23U U26A U43G U51C: the self-cleavage came out at 0.14.
For G24A U43A C62A the value was 0.13; for C23G U54A U67C C79U, 0.05; for G24A U31C A56U, 0.16.
As for U25A C32U A56G, the self-cleavage was found to be 0.18.
With C23U U49C U54A U60C, the self-cleavage amounted to 0.51.
As for U25A A45G A47U A57G U80A, the self-cleavage came to 0.07.
G24A A45G A64G: the self-cleavage turned out to be 0.08.
Turning to G24A A35U A75U, the self-cleavage was found to be 0.09.
For the variant G24A A35G U41G, the self-cleavage was 0.11.
Turning to G24A A35G U41C, the self-cleavage was 0.11.
As for G24A A28G U41A A45G A65G, the self-cleavage was 0.08.

The values above are taken from the RNAGym collection of RNA variant scans (doi:10.1093/nar/gkz1192).
